48 compounds from PubChem BioAssay AID2528 (National Center for Advancing Translational Sciences (NCATS), 2010) can be followed below.

Each structure is given as a SMILES string. The campaign covered roughly 350,000 compounds. About 700 (0.2%) were called active. Calls follow the shape of the dose curve; as a rule, active = well fitted inhibition curve with a large enough effect; inconclusive = small, poorly fitted or top-dose-only effect; inactive = flat fitted curve, though single readings scatter. The list shows a part of the results, in another mix than the full data. A structure can be active in one record and inactive in another.
Potency is read from the fitted curve at half-maximal effect.

The test addresses RecQ-like DNA helicase BLM (Homo sapiens) (UniProt P54132). In words: qHTS Assay for Inhibitors of Bloom's syndrome helicase (BLM). Also: nearly all actives have a fitted effect of over 35% in size.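 As to activity change, negative = inhibition: plate controls were vehicle for no effect and no enzyme for full effect.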 Conditions: recombinant BLM DNA unwinding, fluorescence dequenching; series mostly up to 56.1 µM; activity change, negative = inhibition: at the top concentration. (Quantitative high-throughput screening tests each substance at several concentrations.)
Sequence of UniProt P54132 (P54132 whole entry, looked up): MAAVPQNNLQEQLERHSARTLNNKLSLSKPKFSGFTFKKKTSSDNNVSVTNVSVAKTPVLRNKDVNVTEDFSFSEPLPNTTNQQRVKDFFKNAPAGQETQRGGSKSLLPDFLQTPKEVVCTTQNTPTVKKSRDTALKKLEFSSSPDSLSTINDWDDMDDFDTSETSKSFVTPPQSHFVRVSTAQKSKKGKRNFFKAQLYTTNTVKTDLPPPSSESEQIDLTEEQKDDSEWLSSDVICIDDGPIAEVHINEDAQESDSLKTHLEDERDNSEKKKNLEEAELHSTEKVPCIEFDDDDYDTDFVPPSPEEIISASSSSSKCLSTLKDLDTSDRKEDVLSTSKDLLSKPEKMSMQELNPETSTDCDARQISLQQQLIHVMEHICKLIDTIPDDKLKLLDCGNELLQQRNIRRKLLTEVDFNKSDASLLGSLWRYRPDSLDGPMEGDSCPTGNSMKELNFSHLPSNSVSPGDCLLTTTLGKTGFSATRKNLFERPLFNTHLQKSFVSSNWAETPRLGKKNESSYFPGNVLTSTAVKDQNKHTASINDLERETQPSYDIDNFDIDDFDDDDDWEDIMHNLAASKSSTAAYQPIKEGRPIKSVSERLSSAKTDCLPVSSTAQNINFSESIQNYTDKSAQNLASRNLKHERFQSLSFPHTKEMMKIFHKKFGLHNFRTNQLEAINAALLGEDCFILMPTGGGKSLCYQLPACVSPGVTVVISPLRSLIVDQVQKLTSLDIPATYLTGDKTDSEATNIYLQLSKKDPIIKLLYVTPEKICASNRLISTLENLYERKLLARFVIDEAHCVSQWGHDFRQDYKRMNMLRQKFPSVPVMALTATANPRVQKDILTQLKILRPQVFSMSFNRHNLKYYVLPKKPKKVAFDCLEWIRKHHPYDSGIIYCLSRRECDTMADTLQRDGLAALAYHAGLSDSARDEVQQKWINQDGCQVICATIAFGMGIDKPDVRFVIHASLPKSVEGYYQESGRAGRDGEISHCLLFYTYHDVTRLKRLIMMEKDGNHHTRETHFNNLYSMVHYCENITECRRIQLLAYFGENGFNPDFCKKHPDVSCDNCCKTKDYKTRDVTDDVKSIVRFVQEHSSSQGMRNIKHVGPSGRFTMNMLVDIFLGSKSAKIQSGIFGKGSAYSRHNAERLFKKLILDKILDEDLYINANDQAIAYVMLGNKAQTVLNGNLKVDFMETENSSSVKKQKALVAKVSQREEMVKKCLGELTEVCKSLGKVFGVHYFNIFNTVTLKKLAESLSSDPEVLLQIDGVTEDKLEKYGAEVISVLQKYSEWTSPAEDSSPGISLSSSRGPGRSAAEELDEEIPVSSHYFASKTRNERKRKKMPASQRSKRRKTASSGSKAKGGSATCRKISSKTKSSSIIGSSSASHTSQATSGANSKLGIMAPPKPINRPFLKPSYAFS
Take `COCCc1ccc(OC[C@H](O)CNC(C)C)cc1`: the “activity change, negative = inhibition” value is inactive: -10.2%. `CN(C)CCCN1c2ccccc2Sc2ccc(C(F)(F)F)cc21`: the Potency entry is “inactive”. Still for that read-out and setting: the value for `CCCCNC(=O)c1ccc2nc(-c3ccco3)c(-c3ccco3)nc2c1` was active: 15.8 µM.

On to `CC12CCC(=O)C=C1CCC1C2CCC2(C)C1CC[C@]2(O)C(=O)CO` (stereo partly drawn), for which the “activity change, negative = inhibition” value was inactive: -0.117%. Regarding `COC(=O)C1=C(C)NC(C)=C([N+](=O)[O-])C1c1ccccc1C(F)(F)F` (stereo not drawn), the “activity change, negative = inhibition” value was inactive: -14.8%. For `COCCCCC(=NOCCN)c1ccc(C(F)(F)F)cc1`, the Potency result was “inactive”. Consider `C#C[C@]1(O)CCC2C3CCC4=Cc5oncc5C[C@@]4(C)C3CC[C@@]21C` (stereo partly drawn), for which the “activity change, negative = inhibition” value is inactive: 1.1%. Same read-out and setting: next, `CN(Cc1cnc2nc(N)nc(N)c2n1)c1ccc(C(=O)N[C@H](CCC(=O)O)C(=O)O)cc1`: inactive: -4.15% [at 21.4 µM]. Take `CN1CCN(C2=Nc3ccccc3Oc3ccc(Cl)cc32)CC1`: the Potency result is “inactive”.

Consider `CC(=O)OCC(=O)[C@@]1(O)CC[C@H]2[C@@H]3CCC4=CC(=O)CC[C@]4(C)[C@H]3C(=O)C[C@@]21C`, for which the “activity change, negative = inhibition” value is inactive: 0.0933%.

`O=C1c2c(O)cc(O)cc2OC(c2ccc(O)c(O)c2)C1O` (stereo not drawn): the “activity change, negative = inhibition” value was inactive: -1.39%. The same measure, in the same setting: the value for `O=C1c2c(O)cc(O)cc2O[C@H](c2ccc(O)c(O)c2)[C@H]1O` was inactive: -3.83%. In the case of `CCOC(=O)c1ccc2c(c1)C1C=CCC1C(C(=O)O)N2` (stereo not drawn), the Potency is active: 28.2 µM. For the compound `C[C@@H]1CC[C@@H]2C(=O)N3[C@@H](CC[C@@H](C)[C@@H]3c3ccc(-c4ccco4)cc3)C(=O)N2[C@H]1c1ccc(-c2ccco2)cc1`, the activity change, negative = inhibition was inactive: -22.8% [at 12.4 µM].

Regarding `Oc1ccc(NCc2ccccc2OCc2ccccc2F)cc1`, the “activity change, negative = inhibition” value is inactive: -7.1%. On the same count and under the same terms, the value for `O=C(/C=C\c1ccc(O)c(O)c1)O[C@@H](Cc1ccc(O)c(O)c1)C(=O)O` was inactive: -0.945%. Turning to `O=C(C[n+]1ccc(C(=O)N/N=C/c2ccc(OCc3ccccc3)cc2)cc1)c1ccccc1`, the Potency is active: 35.5 µM.

Take `Oc1ccc(O)cc1`: the Potency entry is “inactive”. Take `C[C@H]1C[C@H]2[C@@H]3CCC4=CC(=O)C=C[C@]4(C)[C@@]3(Cl)[C@@H](O)C[C@]2(C)[C@@]1(O)C(=O)CO`: the Potency result was “inactive”. The same measure, in the same setting: next, `CC(C)Cn1c(N)c(C(=O)NCc2cccs2)c2nc3ccccc3nc21`: active: 31.6 µM.

`CCCCCCCCCCCCCCC[C@@H](O)[C@@H](N)CO`: the Potency entry is “inactive”.

Take `CN(C)[C@H]1C(=O)C(C(=O)NCN2CCCC2)=C(O)[C@]2(O)C(=O)C3=C(O)c4c(O)cccc4[C@@](C)(O)[C@H]3C[C@@H]12`: the “activity change, negative = inhibition” value was inactive: -13.4% [at 21.4 µM].

On to `CC(=O)Oc1cc(C(C)C)c(OCCN(C)C)cc1C`, for which the Potency result is “inactive”. As for `CC1=C(/C=C/C(C)=C/C=C/C(C)=C/C(=O)Nc2ccc(O)cc2)C(C)(C)CCC1`, the Potency entry is “inactive”.

`CN=C(N)NCCC[C@H](N)C(=O)O`: the “activity change, negative = inhibition” value was inactive: -0.67%. Take `FC(F)(F)c1cc(CO[C@H]2CCCN[C@H]2c2ccccc2)cc(C(F)(F)F)c1`: the “activity change, negative = inhibition” value was inactive: -1.84%. With `CCCCCCCCCCCCC/C=C\[C@@H](O)[C@@H](N)CO`, the “activity change, negative = inhibition” value is inactive: -1.15%. As for `COc1cccc2c1C(=O)c1c(O)c3c(c(O)c1C2=O)C[C@](O)(C(C)=O)C[C@H]3O[C@@H]1C[C@H](N)[C@H](O)[C@H](C)O1`, the Potency was active: 14.1 µM.

With `O=C(O)C1=CCNCC1`, the Potency entry was “inactive”. In the case of `CC1(C)Cc2c(C#N)c(N3CCN(C(=O)c4ccccc4)CC3)nc(-c3ccco3)c2CS1`, the Potency was active: 28.2 µM. Regarding `CS(=O)(=O)Nc1ccc([N+](=O)[O-])cc1Oc1ccccc1`, the Potency result is “inactive”. In the case of `CC[C@]1(O)CC2CN(CCc3c([nH]c4ccccc34)[C@@](C(=O)OC)(c3cc4c(cc3OC)N(C=O)[C@H]3[C@@](O)(C(=O)OC)[C@H](OC(C)=O)[C@]5(CC)C=CCN6CC[C@]43[C@@H]65)C2)C1` (stereo partly drawn), the “activity change, negative = inhibition” value was inactive: -4.73%. Regarding `Cc1ccc(/C(=C\CN2CCCC2)c2ccccn2)cc1`, the Potency result was “inactive”. Consider `NC(=O)c1ncn([C@@H]2O[C@H](CO)[C@@H](O)[C@H]2O)c1O`, for which the “activity change, negative = inhibition” value was inactive: -3.33%. On to `CC[C@H](C)C(=O)O[C@H]1CCC=C2C=C[C@H](C)[C@H](CC[C@@H]3C[C@H](O)CC(=O)O3)[C@H]21`, for which the “activity change, negative = inhibition” value was inactive: -11.7%. On the same count and under the same terms, the value for `CN1CCCC1CCO[C@@](C)(c1ccccc1)c1ccc(Cl)cc1` (stereo partly drawn) was inactive: -0.377%. In the case of `Cc1ccc(C(=O)Nc2nnc(CC(=O)N/N=C/c3ccc(O)c(O)c3)s2)cc1`, the Potency is active: 12.6 µM. Still for that read-out and setting: next, `O=c1c(-c2ccc(O)cc2)coc2cc(O)cc(O)c12`: “inactive”. With `Cc1cn(C2CC(N=[N+]=[N-])C(CO)O2)c(=O)[nH]c1=O` (stereo not drawn), the “activity change, negative = inhibition” value is inactive: -6.79%. With `CC(C)C[C@H](NC(=O)[C@@H](O)[C@H](N)Cc1ccccc1)C(=O)O`, the Potency result is “inactive”. For the compound `Nc1ccc(O)c2c1C(=O)c1ccccc1C2=O`, the Potency is active: 14.1 µM. With `COC(=O)[C@H]1[C@H]2C[C@@H]3c4[nH]c5cc(OC)ccc5c4CCN3C[C@H]2C[C@@H](OC(=O)c2cc(OC)c(OC)c(OC)c2)[C@@H]1OC`, the “activity change, negative = inhibition” value is inactive: -10.4%. For the compound `N[C@H](C(=O)O)[C@H](O)C(=O)O`, the “activity change, negative = inhibition” value was inactive: -0.53%. As for `CNC[C@H](O)c1cccc(O)c1`, the Potency entry is “inactive”. With `CSc1nc(N)c2ncn([C@H]3O[C@H](COP(=O)(O)OP(=O)(O)O)[C@@H](O)[C@@H]3O)c2n1`, the “activity change, negative = inhibition” value is inactive: -4.94%.

Take `COC(=O)c1ccc(COc2ccc(/C=C(\C#N)c3nc4ccccc4[nH]3)cc2OC)o1`: the Potency was active: 14.1 µM. On the same count and under the same terms, next, `CCN(CC)CCNC(=O)c1ccc(NC(C)=O)cc1`: “inactive”. With `CCCCCCN(CCCCCC)C(=O)Cc1c(-c2ccc(F)cc2)[nH]c2ccccc12`, the “activity change, negative = inhibition” value was inactive: -15.9%.
